These results are taken from patent publication US6482412B1, “Polypeptide having human HIV inhibitory activity, a gene encoding the polypeptide, a method to produce the polypeptide” (Gakkou Houjin Kitasato Gakuen, priority 1999, dated 2002).

Assay type in all cases: cell-based
The test system of one series is T-tropic HIV III B. The series can be described thus: Anti-HIV activity by MAGI assay, III B. The following applies: read-out: Infection preventive activity (IC50nM). As for the experimental part:
(§1) Furthermore, the anti-HIV activity of K97-0003 peptide was measured by MAGI assay (The multinuclear activation of a galactosidase indicator), which can evaluate activation of a gene using β-galactosidase activity as an indicator. The cells were transformed by CD4 gene and CCR5 gene, the coreceptor of HIV. Moreover, LTR (long terminal repeat) of HIV and β-galactosidase gene were further introduced into the transformed cells. Such cells were used for this assay. In such cells, β-galactosidase is activated accompanied with HIV infection of the cell. Therefore, infection of HIV can be measured by color development of X-gal (5-bromo-4-chloro-3-indolyl-β-galactoside), which is the substrate of β-galactosidase. MAGI assay was performed according to the method of R. Arakaki et al. (R. Arakaki et al., Jounal of Virology, Vol.73, No.2, p1719-1723) and the method of J. Kimpton et al. (J. Kimpton et al., Jounal of Virology, Vol.66, No.4, p2232-2239).

A further series has as its system HIV infected MT-4 cell. Kind of series: Anti-HIV activity by suppression of cytopathic effect, MTT method. The following applies: HIV infected MT-4 cells, five days, read-out: BC50 (the source's name). As for the experimental part:
(§2) Anti-HIV activity was measured from suppression of cytopathic effect caused by HIV infection. The HIV infected MT-4 cell (2.5×10^4 cells/well, degree of multiple infection: 0.01) was added to 96 well titer plate immediately after infection. At the same time, K97-0003 peptide of various concentration was also added to the plate. In order to examine cytopathic effect of K97-0003 peptide on MT-4 cell, cells uninfected by HIV was incubated with K97-0003 peptide of various concentrations in the same manner. After five days of incubation at 37° C. in a CO2 incubator, the number of cell survived was measured by MTT method.
(1) EC50: It is the concentration of K97-0003 peptide which inhibits 50% of the cytotoxicity by HIV infection, and is the parameter of anti-HIV activity of the peptide.

The next series deals with T-tropic HIV NL4-3. The series can be described thus: Anti-HIV activity by MAGI assay, NL4-3. The following applies: read-out: Infection preventive activity (IC50nM). On the procedure: as §1
The next series has as its system HIV-2 EHO. Kind of series: Anti-HIV activity by MAGI assay, EHO. The following applies: read-out: Infection preventive activity (IC50nM). On the procedure:
as §1

Another series deals with M-tropic HIV JR-CFS. Kind of series: Anti-HIV activity by MAGI assay, JR-CFS. The following applies: read-out: Infection preventive activity (IC50nM). On the procedure: as §1
A further series concerns HIV-2 ROD. The series can be described thus: Anti-HIV activity by MAGI assay, ROD. The following applies: read-out: Infection preventive activity (IC50nM). As for the experimental part:
as §1

The test system of series [1] is syncytium formation by fusion of HeLa/CD4/LTR cells and HeLa135/env (T-tropic HIV-1)/Tat cells. On the procedure:
50 μl of HeLa/CD4 /LTR cell suspension prepared to 1.6×10^5 cells/ml was inoculated into every each well of 96 well plate (IWAKI MICROPLATE 96well), and 10 μl of the sample, diluted in a series of concentration with phosphate buffer physiological saline, was added to every each well. Then, 50 μl of HeLa135/env(envelope glycoprotein: originated from T-tropic HIV-1)/Tat cell suspension prepared to 1.6×10^5 cells/ml was dispensed to every well, and incubated in an incubator at 37° C. under 5% CO2 air current for 24 hours. After removal of the culture fluid from each well, 20 μl of cell lysis solution was added to every each well, and the plate was left at the room temperature for about 10 minutes.
Continuously, 100 μl of chromogenic substrate solution (Z-buffer: 80 μl+4 mg/ml o-nitrophenyl-β-D-glactopyranoside:20 μl) was added to each well, and reacted in the incubator at 37° C. […] After 80 minutes, 25 μl of reaction stop solution (2M Na2CO3) was added to it, and the absorbance at 405 nm was measured using colorimeter (Organ ON SystemMicrowell System Reader 510). Syncytium formation ability was calculated from the obtained absorbance by the following formula.
Syncytium formation ability=the absorbance of the well with sample addition/absorbance of control×100

Another series concerns MT-4 cell. The series can be described thus: Cytotoxicity on uninfected MT-4 cells, MTT method. On the procedure: as §2
(2) CC50: It is the concentration of K97-0003 peptide that causes cytotoxicity to 50% of cells, and is the parameter of cytotoxic effect of the peptide.

B1: K97-0003 peptide: polypeptide having the amino acid sequence of SEQ.ID.NO.1, purified from culture fluid of actinomycete strain K97-0003, about 14 KDa (protein)
chain: ASVTIRNAQTGRLLDSNYNGNVYTLPANGGNYQRWTGPGDGTVRNAQTGRCLDSNYDGAVYTLPCNGGSYQKWLFYSNGYIQNVETGRVLDSNYNGNVYTLPANGGNYQKWYTG
modifications: Actinomyces K97-0003 Strain
In the case of B1, the IC50 in the series on T-tropic HIV III B turned out to be 2 nM; with T-tropic HIV NL4-3, 16 nM; in the series on HIV-2 EHO, 3.7 nM; with M-tropic HIV JR-CFS, 38 nM; in the series with HIV-2 ROD it was 14 nM; in series [1] (HeLa/CD4/LTR + HeLa135/env/Tat cells, 24 hours, read-out: IC50 of syncytium formation ability) it was 60 nM. Moreover, the EC50 in the series with HIV infected MT-4 cell was 230 nM. Besides, the “IC50 of syncytium formation ability” value in series [1] (same IC50 in mass concentration (in parentheses)) was “(0.8 μg/ml”. In the series with MT-4 cell, this molecule came in with a CC50 of over 8000 nM.
